Experimental findings from the supplement of paper PMC9446081 are described below.

Hit rate of the full screen: of about 39,000 compounds, about 220 (0.56%) showed activity. The list shows a part of the results.
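Also: static incubation at 37 °C against the wild-type strain, values averaged over two biological replicates.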

The assay has as its system Escherichia coli K-12 BW25113. In words: relative growth (OD600 normalised to plate interquartile mean) (fraction); higher = less growth inhibition, active = 0.2 or less. Conditions: 50 µM; LB; incubation time: overnight (16-24 h).
In the case of `C[C@@H]1CN([C@@H](C)CO)C(=O)c2cccc(NC(=O)C3CCOCC3)c2O[C@@H]1CN(C)Cc1ccc(-c2ccccc2)cc1`, the relative growth was inactive: 1.03.
Take `C[C@H](CO)N1C[C@H](C)[C@H](CN(C)C(=O)Nc2ccccc2)OCc2ccccc2-c2c(n(C)c3ccccc23)C1=O`: the relative growth is inactive: 1.01.
On to `CC(C)c1c(O)c(-c2cc3c(c(C(C)C)c2O)CC[C@H]2C(C)(C)CCC[C@]32C)cc2c1CC[C@H]1C(C)(C)CCC[C@]21C`, for which the relative growth is inactive: 0.995.
Take `C[C@H](CO)N1C[C@H](C)[C@H](CN(C)Cc2ccncc2)Oc2ccc(NC(=O)Cn3cnnn3)cc2CC1=O`: the relative growth was inactive: 1.
Consider `C[C@H]1CN([C@@H](C)CO)C(=O)c2cc(NC(=O)Cc3cn(C)c4ccccc34)ccc2O[C@@H]1CN(C)Cc1ccc(Cl)c(Cl)c1`, for which the relative growth was inactive: 0.971.
For the compound `C[C@@H]1CN([C@@H](C)CO)C(=O)c2cc(NC(=O)Cc3ccccc3)ccc2O[C@@H](C)CCCCO[C@@H]1CN(C)S(=O)(=O)c1ccc(F)cc1`, the relative growth is inactive: 1.01.
Then `O=C(Nc1cc(Cl)ccc1Cl)c1cc(Cl)ccc1NS(=O)(=O)c1ccc(Cl)c([N+](=O)[O-])c1`, with inactive: 0.704; and `CCC[C@@H](O)C#Cc1cnc2c(c1)C(=O)N([C@H](C)CO)C[C@H](C)[C@H](CN(C)Cc1ccc3c(c1)OCO3)O2`, with inactive: 0.98.
Then `C[C@@H]1CN([C@H](C)CO)C(=O)Cc2cc(NC(=O)C3CCCCC3)ccc2O[C@H]1CN(C)Cc1ccc(Oc2ccccc2)cc1`, with inactive: 1.
As for `COc1ccccc1-c1ccc2c(c1)O[C@H](CN(C)S(=O)(=O)c1ccccc1)[C@H](C)CN([C@H](C)CO)S2(=O)=O`, the figure is inactive: 1.04; as for `C[C@H](CO)N1C[C@H](C)[C@H](CN(C)C(=O)Nc2ccc(F)cc2)OCCCC[C@H](C)Oc2ccc(NC(=O)c3ccccc3)cc2C1=O`, inactive: 1.02; as for `C[C@@H]1CN([C@H](C)CO)C(=O)c2cccc(NC(=O)Nc3ccc(C(F)(F)F)cc3)c2O[C@@H]1CN(C)Cc1ccc2c(c1)OCO2`, inactive: 0.946.
Consider `C[C@@H]1CN([C@H](C)CO)C(=O)c2cccc(NC(=O)c3ccncc3)c2O[C@@H]1CN(C)Cc1ccc(C(=O)O)cc1`, for which the relative growth is inactive: 0.996.
`Cc1noc(C)c1NC(=O)Nc1cccc2c1O[C@H](CN(C)S(=O)(=O)c1ccccc1)[C@H](C)CN([C@@H](C)CO)C2=O`: the relative growth was inactive: 1.01.
Then `C[C@@H]1CN([C@@H](C)CO)C(=O)Cc2cc(NC(=O)Cc3ccccc3)ccc2O[C@@H]1CN(C)C(=O)Nc1ccc(C(F)(F)F)cc1`, with inactive: 0.998.
Then `Cc1noc(C)c1NC(=O)Nc1ccc2c(c1)CC(=O)N([C@H](C)CO)C[C@H](C)[C@H](CN(C)C(=O)NC(C)C)O2`, with inactive: 0.993; and `C[C@H](CO)N1C[C@H](C)[C@@H](CN(C)C(=O)Nc2ccc(C(F)(F)F)cc2)Oc2ccc(NC(=O)C3CCCCC3)cc2CC1=O`, with inactive: 1.
Then `CCCNC(=O)N(C)C[C@H]1Oc2cc(-c3ccccc3F)ccc2S(=O)(=O)N([C@@H](C)CO)C[C@H]1C`, with inactive: 1.02.
For the compound `Cc1ccc(S(=O)(=O)Nc2ccc3c(c2)C(=O)N([C@@H](C)CO)C[C@@H](C)[C@@H](CN(C)C(=O)CCC(F)(F)F)OCCCC[C@H](C)O3)cc1`, the relative growth is inactive: 0.97.
As to `O=C(N/N=C/[C@H](O)[C@@H](O)[C@H](O)[C@H](O)CO)c1ccccn1`, the relative growth was inactive: 1.
Turning to `Cc1ccc(S(=O)(=O)Nc2ccc3c(c2)C(=O)N([C@H](C)CO)C[C@H](C)[C@@H](CN(C)C(=O)Nc2ccccc2)OCCCC[C@H](C)O3)cc1`, the relative growth is inactive: 1.01.
Regarding `CNC1C(OC2C(OC3C(O)C(O)C(NC(=N)N)C(O)C3NC(=N)N)OC(C)C2(O)C=O)OC(CO)C(O)C1O.O=S(=O)(O)O` (stereo not drawn) [STREPTOMYCIN SULFATE [5mM; 10% aq DMSO + 5mM ethanolamine]], the relative growth is inactive: 1.11.
For `O=C(O)Cc1cc(I)c(Oc2ccc(O)c(I)c2)c(I)c1`, the relative growth was inactive: 1.09.
Then `C[C@@H]1CN([C@H](C)CO)C(=O)CCCn2cc(nn2)CO[C@H]1CN(C)C(=O)c1ccc(N2CCN(C)CC2)cc1`, with inactive: 0.991; and `CC1CC2C3CCC4=CC(=O)C=CC4(C)C3(Cl)C(O)CC2(C)C1(OC(=O)c1ccco1)C(=O)CCl` (stereo not drawn), with inactive: 0.877.
With `CC(C)(C)C(=O)CC1(O)CCCCC1`, the relative growth was inactive: 1.02.
Then `Cc1ccc(S[C@]2(C(=O)NCCCN(C)C)CC(=O)N(Cc3ccccc3Cl)[C@@H]2c2ccc(CO)cc2I)cc1`, with inactive: 0.938; and `CC1C(=O)CCC2C1(C)CCC1C2(C)CCC2(C)C3CC(C)(C)CCC3(C)CCC12C` (stereo not drawn), with inactive: 0.978; and `CCOC(=O)CN1C(=O)c2ccccc2C1=O`, with inactive: 1.02.
As for `Cc1noc(C)c1NC(=O)N(C)C[C@@H]1Oc2ccc(NC(=O)c3ccncc3)cc2C(=O)N([C@@H](C)CO)C[C@@H]1C`, the figure is inactive: 0.983; as for `COc1ccc(cc1)S(=O)(=O)N1C[C@]2(CN(Cc3ccncc3)[C@H](CO)c3[nH]c4cc(ccc4c32)OC)C1`, inactive: 1.01.
As for `C[C@@H]1CCCCO[C@@H](CN(C)C(=O)Cc2ccccc2)[C@@H](C)CN([C@H](C)CO)C(=O)c2cc(NC(=O)NC3CCCCC3)ccc2O1`, the figure is inactive: 1.01; as for `C[C@H](CO)N1C[C@H](C)[C@@H](CN(C)S(=O)(=O)c2cn(C)cn2)Oc2c(NS(C)(=O)=O)cccc2C1=O`, inactive: 1.02; as for `C[C@@H]1CN([C@H](C)CO)C(=O)c2cc(NC(=O)c3ccncc3)ccc2O[C@@H]1CN(C)Cc1ccc2c(c1)OCO2`, inactive: 0.987.
Take `C[C@H](CO)N1C[C@H](C)[C@@H](CN(C)C(=O)Nc2ccccc2)OCCCC[C@H](C)Oc2ccc(NC(=O)Nc3ccc4c(c3)OCO4)cc2C1=O`: the relative growth was inactive: 1.02.
As for `C[C@H]1CN([C@@H](C)CO)C(=O)c2cc(-c3cccc(C(=O)N(C)C)c3)cnc2O[C@H]1CN(C)C(=O)Cc1ccccn1`, the relative growth was inactive: 1.02.
Regarding `COc1ccc(NC(=O)Nc2ccc3c(c2)C(=O)N([C@H](C)CO)C[C@@H](C)[C@@H](CN(C)CC2CCCCC2)OCCCC[C@@H](C)O3)cc1`, the relative growth is inactive: 0.984.
As for `COc1ccc(S(=O)(=O)Nc2ccc3c(c2)C(=O)N([C@@H](C)CO)C[C@H](C)[C@@H](CN(C)S(=O)(=O)c2ccc(Cl)cc2)OCCCC[C@H](C)O3)cc1`, the figure is inactive: 1.06.
As for `C[C@@H]1CN([C@@H](C)CO)C(=O)c2cc(NC(=O)Cc3ccccc3)ccc2O[C@@H](C)CCCCO[C@@H]1CN(C)C(=O)Nc1ccc2c(c1)OCO2`, the relative growth was inactive: 0.972.
As for `C=CCN([C@@H](Cc1ccccc1)[C@@H](O)c1cn(CCCCCCNC(=O)C(=O)NC)nn1)S(=O)(=O)c1ccccc1[N+](=O)[O-]`, the figure is inactive: 0.95.
Regarding `O=C(C[C@@H]1C[C@H]2c3cc(NS(=O)(=O)c4ccc(F)cc4)ccc3O[C@H]2[C@H](CO)O1)NC1CCCCC1`, the relative growth is inactive: 1.
In the case of `COc1cc(C(C)=O)cc(OC)c1O`, the relative growth is inactive: 0.953.
As for `C[C@H](CO)N1C[C@H](C)[C@@H](CN(C)Cc2ccc(Cl)c(Cl)c2)Oc2c(NS(=O)(=O)c3ccccc3)cccc2C1=O`, the figure is inactive: 1.07; as for `C[C@H]1CCCCO[C@H](CN(C)S(=O)(=O)c2ccc(F)cc2)[C@@H](C)CN([C@@H](C)CO)C(=O)c2cc(NS(=O)(=O)c3cn(C)cn3)ccc2O1`, inactive: 0.99.
In the case of `CCCNC(=O)N(C)C[C@H]1Oc2cc(-c3ccc(C)cc3)ccc2S(=O)(=O)N([C@H](C)CO)C[C@H]1C`, the relative growth was inactive: 1.02.
With `COc1ccc(NC(=O)Nc2ccc3c(c2)C(=O)N([C@H](C)CO)C[C@H](C)[C@H](CN(C)CC2CC2)OCCCC[C@@H](C)O3)cc1`, the relative growth is inactive: 1.01.
As for `C[C@]1(C(=O)O)c2ccccc2C(=O)N(Cc2cc(C(F)(F)F)cc(C(F)(F)F)c2)[C@H]1c1ccc(CO)cc1`, the figure is inactive: 0.98; as for `C[C@@H]1CN([C@@H](C)CO)C(=O)c2cc(NC(=O)Nc3cccc4ccccc34)ccc2O[C@@H](C)CCCCO[C@H]1CN(C)C(=O)C1CCCCC1`, inactive: 1.01; as for `C[C@H]1CCCCO[C@@H](CN(C)C(=O)Nc2ccccc2)[C@@H](C)CN([C@@H](C)CO)C(=O)c2cc(NC(=O)c3ccccc3)ccc2O1`, inactive: 1.04.
Regarding `COCC#Cc1ccc2c(c1)O[C@H](CN(C)C(=O)C1CCCCC1)[C@H](C)CN([C@H](C)CO)S2(=O)=O`, the relative growth was inactive: 0.988.
As for `CC(C)(C)[S@@](=O)N1Cc2cc(C(=O)NCc3ccncc3)nc(-c3cccc(-c4ccc(C#N)cc4)c3)c2[C@H]1CCO`, the figure is inactive: 1.04.
As to `Cc1ccc(-c2ccc3c(c2)O[C@H](CN(C)Cc2cncnc2)[C@H](C)CN([C@@H](C)CO)S3(=O)=O)cc1`, the relative growth is inactive: 1.02.
On to `C[C@H]1CN([C@@H](C)CO)C(=O)Cc2cc(NC(=O)CCCN(C)C)ccc2O[C@@H]1CN(C)S(=O)(=O)c1ccccc1`, for which the relative growth was inactive: 0.981.
As to `Cc1cc(C(=O)Nc2cccc3c2O[C@H](CN(C)C(=O)Nc2c(C)noc2C)[C@@H](C)CN([C@H](C)CO)C3=O)n(C)n1`, the relative growth was inactive: 1.02.
As for `C[C@H]1CN([C@@H](C)CO)C(=O)c2cc(-c3cncnc3)cnc2O[C@H]1CN(C)C(=O)CN1CCOCC1`, the figure is inactive: 0.976; as for `COc1ccc(C#Cc2ccc([C@@H]3[C@H]4CN(S(=O)(=O)c5cn(C)cn5)CCCCN4[C@H]3CO)cc2)cc1`, inactive: 1.
As for `CNC(=O)[C@H]1C[C@@H]2CCN(C(=O)N(C)C)C[C@H]2O1`, the figure is inactive: 1.02.
Turning to `COc1cccc(S(=O)(=O)N(C)C[C@@H]2Oc3ncc(C#Cc4cccc(F)c4)cc3C(=O)N([C@H](C)CO)C[C@@H]2C)c1`, the relative growth was inactive: 1.02.
